The supplement of paper PMC11417369
± gives the standard deviation of the averaged measurements. This is one part of the list.

These sequences were tested on PfAP2-LT AP2 domain (GST-tagged) (assay: gcPBM binding intensity (ln(normalized median fluorescence intensity)); higher = stronger DNA binding).
Method in brief: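 An Agilent 4 × 180k array of primer-extended double-stranded 36-bp intergenic genomic probes, with negative controls, was incubated for 1 h with GST-tagged P. falciparum DNA-binding domains expressed in E. coli. Alexa488 anti-GST antibody detected bound protein, scanned at 488 nm. Binding intensity is the highest Masliner-normalised natural-log median intensity across replicate spots of either probe orientation.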

Sequence	gcPBM binding intensity (ln)
GTTATTTATAGACACACACACATGCATGCACATATA [CACACA_site6204]	9.78 ± 0.25
CATATGTTCATCATAGCACACATATATAAATTACAA [CACACA_site9177]	9 ± 0.44
TATATATATATATATTGTACATAATGTATATATGTT [XGTACX_site3448]	9.15 ± 0.3
TATAGGTATGTATGTACACACAAAAAATGGAATATA [CACACA_site7704]	9.38 ± 0.39
CATATATATTTGTTCACACACACACCCAAAAAAAAA [CACACA_site2476]	9.61 ± 0.28
GAAAAAGTTATAAATTGTACTAAATATTAAATATTG [XGTACX_site7890]	8.4 ± 0.56
TTTAAAATGGGACTTTGAAAAAAAAAAAAAAAAACA [TGCATGCA_negctrl_site111]	8.22 ± 0.48
ATATATATATATATTTGTACATATATACATAAAATT [XGTACX_site359]	8.97 ± 0.26
TATATATCATTTAAAACACACAAAAAAAAAAGTTAT [CACACA_site6191]	8.78 ± 0.52
ATAAATATAAAAAAATGTACATATAGTAATACATAC [XGTACX_site508]	8.96 ± 0.5
GACTTTTCATTTATAGTGCAAGTTTTTTTTTTTTTT [GTGCAC_site9698]	8.69 ± 0.55
ATAAGTATAAGAATCAGTACACAGTTTCTACATACT [XGTACX_site5834]	8.84 ± 0.4
GAAATAAAAAGAAATGCATGTAATTTTTTTTTTTTT [TGCATGCA_site928]	8.65 ± 0.47
TTGTATTTTTAAATGACACACACATATATATATATA [CACACA_site8481]	9.47 ± 0.29
AATAAATAAGCACATACACACATACATACATACATA [CACACA_site6075]	9.54 ± 0.26
AAGTTATAAAAATAAAGTACAAAGTAGCTATTTTTT [XGTACX_site3144]	8.67 ± 0.54
ATTAAAACCAATTAAAAAAAATTTATAATGGAAGCA [TGCATGCA_negctrl_site273]	8.44 ± 0.41
TATTATTGTTGTTCATGTACACACTATAATAAAAGC [XGTACX_site8957]	8.8 ± 0.39
AATGACTAAATTTAAACACACAAGGGGAGTTTACTT [CACACA_site918]	8.83 ± 0.35
GAGATAAAATAAAACACACACATATATATATATAAT [CACACA_site5246]	9.59 ± 0.36
ATATATGTATGTTAGACACACATATTATAATATGTT [CACACA_site116]	9 ± 0.41
AAAACGGATTCTTTATAAATAAATAAATAAATATAA [XGTACX_negctrl_site157]	8.45 ± 0.51
AATACATACACAAATACACACACAAATACATACACA [CACACA_site8134]	9.9 ± 0.3

Sequence	gcPBM binding intensity (ln)
TTTTTTTTTTTTTTTACACACAAATGTATACTATAT [CACACA_site1787]	8.85 ± 0.42
TATTAAATATTCATATGTACATATAGTTTATAAATT [XGTACX_site7455]	8.53 ± 0.46
TATAAATAAATGTGTACACACATTAAAATCAAACGT [CACACA_site2340]	9.36 ± 0.35
TTATGTGCTTTAAAAGTGCATTTTTTTTTTTTTTTT	8.36 ± 0.33
TATATGTTTTATAAATGTACATATACTTAAATATTT [XGTACX_site4753]	8.54 ± 0.43
TTTATCAAAAAAAAAAAAAAAAAAAAAAAAAATTGT [CACACA_negctrl_site176]	8.38 ± 0.49
TTATTTGTATCCATTTCACACATTTTATATAGTATC [CACACA_site5989]	8.96 ± 0.43
TTTTTTGTTATGCGGGTGCATATAATAATGTGATGA	8.63 ± 0.4
AATACATAATAACGTTGTACAAAAATTATAATACAT [XGTACX_site6508]	9.18 ± 0.42
ACTATTAAGAATAAAGAAATATGTAATTGTATTTAA [CACACA_negctrl_site516]	8.41 ± 0.4
ATTAAAAATTAATATAAACACACAAAAATTAATAAA [CACACA_site8019]	8.76 ± 0.42
TCCTCGCGTAATACTTTTCAAATAAAAAAAATAAAA [TGCATGCA_negctrl_site403]	8.17 ± 0.44
GTGTCAAATTTTATAACACACAAAAGATTATATAAG [CACACA_site4086]	8.87 ± 0.43
CCAATATATACATATATATAGTTATATATATTTCCT [TGCATGCA_negctrl_site38]	8.77 ± 0.36
TTTTTTTTTTTTTATTGTACTAGTAGATATATATAC [XGTACX_site3463]	8.7 ± 0.45
AAACATACTTGATGCAGTACACATTATAAGCACATA [XGTACX_site3359]	8.93 ± 0.39
ATATATGTATATGTGTGTACATATATGTTTATTATT [XGTACX_site6043]	9.15 ± 0.29
GGACTTAAATAAAATGGTACAGAATTTATATATATT [XGTACX_site8214]	8.63 ± 0.47
TAATGGAATACATATAGTACATAATATTACATACAT [XGTACX_site5737]	8.88 ± 0.44
AAACAAAAAAGTAAGAAAAGGGATGATTGGATCCAA [CACACA_negctrl_site1230]	8.7 ± 0.64
AGATATTATAATTAATGTACAAAAAGAAAAAATAGA [XGTACX_site8964]	8.79 ± 0.39
ATAAAAATACAGTTAACACACATGTGGATATATATG [CACACA_site3771]	9.35 ± 0.49
AACATAAAAATGAACATACACACATATATATATATA [CACACA_site2497]	9.96 ± 0.33

Sequence	gcPBM binding intensity (ln)
GTATATCATTTTGGGGTGCTTAAAAATAATGAATAC	8.67 ± 0.35
TATATAACATAATATACACACATTATGTGCGTAATT [CACACA_site4073]	8.99 ± 0.34
TTTTTTTTTTTTTATTGTACAAAGGTATAAAATAAT [XGTACX_site2396]	8.23 ± 0.37
TATTATTCTGTATTTGCATGTGATCATATATATGTA [TGCATGCA_site1053]	8.98 ± 0.37
CATATGTATATGACTACACACAAGGGTGTACAGATA [CACACA_site4776]	9.1 ± 0.38
TTTTTAATTTATTAAGAAGTAAAGAATAACTCTTTT [TGCATGCA_negctrl_site101]	7.9 ± 0.38
AAACATTAAAATAACTCACACATTTTTCTAGTCTTC [CACACA_site4612]	8.82 ± 0.37
ATATATTTAATATTCACACATAATTATTTTTACTCT [CACACA_site5438]	8.79 ± 0.46
ATATAATGATAATATTGTACATGTTATATTTCAATA [XGTACX_site8645]	8.66 ± 0.4
TATAGATAAGAATATGCACACATTTTATTTTTTTTT [CACACA_site1982]	8.8 ± 0.46
TTGTAATATCTTGTCACACATATATATATATATATA [CACACA_site4937]	9.53 ± 0.18
AGTTTTCCATGTTAATGTACTTAACAATACCATAAT [XGTACX_site209]	8.77 ± 0.35
ATTTATTCATAGACAACAAGAAAAAAAAAAAAAATT [CACACA_negctrl_site1168]	8.5 ± 0.47
TATATCCATATTGTATGTACACATATAATACCAATG [XGTACX_site7230]	8.84 ± 0.4
GTATTATCTTTTAATAGTACATATTTTTTTGAAACA [XGTACX_site4050]	8.32 ± 0.45
AATATATTTTTATATTGTACAAAAGAAAAAAAATAT [XGTACX_site1689]	8.58 ± 0.52
CATATAATATTTGAAACTATATATAAATATAAGGTA [TGCATGCA_negctrl_site19]	8.63 ± 0.45
GAACTTTACAACCCAACACACAAAAAAGAAAAGAAA [CACACA_site1717]	9.02 ± 0.49
ATTGGTGTATGTTTATGTACTTATCACAATTATGAA [XGTACX_site7055]	8.86 ± 0.49
ATATGTTCATTTAAAAGTACTTAATATAACATTTTT [XGTACX_site3332]	8.55 ± 0.35
AATAGGAAAAGAAAAGCACACACATAAATAAATATA [CACACA_site8062]	9.38 ± 0.36
AAACATTTACTATATTGTACTTAAGATCTTATCGTA [XGTACX_site3919]	8.82 ± 0.41
TAATATGACATAAGGGGTACTATATATATATATATT [XGTACX_site386]	9.1 ± 0.3

Sequence	gcPBM binding intensity (ln)
GTTTTATAAAAAGGCGCACACATATACATAAATATA [CACACA_site1864]	9.37 ± 0.47
TAAATACAAAAATGCACACGAAAAGTAATATATATA [CACACA_site6151]	9.28 ± 0.4
AAAAAGAAAATATATACACACCAAAAAAAAAAAAAA [CACACA_site5698]	8.94 ± 0.46
GATAAAGTACTTTATACACACAAATATTTATATATA [CACACA_site3974]	8.99 ± 0.47
TCAAATTACTAAAATACACACATATTATAGATATAT [CACACA_site7233]	8.85 ± 0.41
TGTATATATAATAAAACACACATTTTTAATGTGCTC [CACACA_site1437]	8.78 ± 0.46
AAACGATTAATGTGTACACACATAGTTATAAACATA [CACACA_site7073]	9.28 ± 0.38
TTACACATGTATTTGGTGCATGTTGTTAACAAAATA	8.64 ± 0.38
TTAACATACACTCTAGTGCATATATATAACAAAATA [GTGCAC_site9724]	8.7 ± 0.37
ATTAAAACACAATATTCACACATGTATATTATATAT [CACACA_site5191]	8.93 ± 0.46
AATTTAAATCTTCAAAGTACTAAAAAAAAAAATAAT [XGTACX_site8566]	8.36 ± 0.48
ATCATATTTATATTGGTGCATTATGCATGAAATTTA [GTGCAC_site9571]	8.64 ± 0.33
ATATAAATTTAATACACACCCAAAAAAAAAAAAAAA [CACACA_site3750]	8.7 ± 0.52
ATAATAAGCAGACACACACACACAAAAAAAAAAAAA [CACACA_site6477]	9.69 ± 0.47
TAAATAAATACATACACACACATACAGATATATATA [CACACA_site5690]	9.62 ± 0.26
CGCCCACAGATATATACACACATATATAAATAAATA [CACACA_site6877]	9.04 ± 0.33
TATGCTTTGATGAAGACACACATATAGAAGCGTATT [CACACA_site1925]	8.84 ± 0.3
AAAACTATTTCTTTCAGTACATATTTGGACTTATAT [XGTACX_site4977]	8.63 ± 0.4
TATGTTATAAAATATATATTATAATATGTATATATA [XGTACX_negctrl_site233]	8.38 ± 0.46
TACTTTTATAAAAATTGTACAAAAAAAAAAAAAAAA [XGTACX_site2266]	8.29 ± 0.3
